# Reference: the supplement of paper PMC8728848
# Some of the results follow.
# Legend:
# Test in all cases: glycan array binding signal (z-score within array); higher = stronger binding
# Settings in all cases: glycan notation: IUPAC condensed, linker removed
# [1] = biological target: Gal(b1-3)[Neu5Ac(a2-6)]GalNAc
# Procedure, shortened: (§1)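 The Consortium for Functional Glycomics database supplied 3228 glycan arrays, of which those lacking an available protein sequence were dropped. The binding signal, a within-array Z-score, was averaged across arrays of the same protein sequence and across linkers. Negative scores can be read as non-binding.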
# [2] = biological target: Gal(b1-3)[Neu5Ac(a2-6)]GlcNAc
# Procedure, shortened: as §1
# [3] = biological target: Gal(b1-3)[Neu5Ac(a2-6)]GlcNAc(a1-4)Gal(b1-4)Glc
# Procedure, shortened: as §1
# [4] = biological target: Gal(b1-3)[Neu5Ac(b2-6)]GlcNAc
# Procedure, shortened: as §1
# [5] = biological target: Gal(b1-4)GalNAc(a1-3)[Fuc(a1-2)]Gal(b1-4)GlcNAc
# Procedure, shortened: as §1
# [6] = biological target: Gal(b1-4)GalNAc(b1-3)[Fuc(a1-2)]Gal(b1-4)GlcNAc
# Procedure, shortened: as §1
# Gal(b1-4)Glc = biological target: Gal(b1-4)Glc
# Procedure, shortened: as §1
# Gal(b1-4)Glc6S = biological target: Gal(b1-4)Glc6S
# Procedure, shortened: as §1
# Gal(b1-4)GlcNAc = biological target: Gal(b1-4)GlcNAc
# Procedure, shortened: as §1
# [7] = biological target: Gal(b1-4)GlcNAc(b1-2)Man(a1-3)[Gal(b1-4)GlcNAc(b1-2)Man(a1-6)]Man(b1-4)GlcNAc(b1-4)GlcNAc
# Procedure, shortened: as §1
# [8] = biological target: Gal(b1-4)GlcNAc(b1-3)Gal(b1-4)Glc
# Procedure, shortened: as §1
# [9] = biological target: Gal(b1-4)GlcNAc(b1-3)Gal(b1-4)GlcNAc
# Procedure, shortened: as §1
# [10] = biological target: Gal(b1-4)GlcNAc(b1-3)Gal(b1-4)GlcNAc(b1-3)Gal(b1-4)GlcNAc
# Procedure, shortened: as §1
# [11] = biological target: Gal(b1-4)GlcNAc(b1-3)Gal(b1-4)[Fuc(a1-3)]GlcNAc(b1-3)Gal(b1-4)[Fuc(a1-3)]GlcNAc
# Procedure, shortened: as §1
# [12] = biological target: Gal(b1-4)GlcNAc(b1-3)GalNAc
# Procedure, shortened: as §1
# [13] = biological target: Gal(b1-4)GlcNAc(b1-3)[Gal(b1-4)GlcNAc(b1-6)]GalNAc
# Procedure, shortened: as §1
# [14] = biological target: Gal(b1-4)GlcNAc(b1-6)GalNAc
# Procedure, shortened: as §1
# [15] = biological target: Gal(b1-4)GlcNAc(b1-6)[Gal(b1-3)]GalNAc
# Procedure, shortened: as §1
# [16] = biological target: Gal(b1-4)GlcNAc(b1-6)[Gal(b1-3)]GlcNAc
# Procedure, shortened: as §1
# Gal3S(b1-3)GalNAc = biological target: Gal3S(b1-3)GalNAc
# Procedure, shortened: as §1
# Gal3S(b1-3)GlcNAc = biological target: Gal3S(b1-3)GlcNAc
# Procedure, shortened: as §1
# [17] = biological target: Gal3S(b1-3)[Fuc(a1-4)]GlcNAc
# Procedure, shortened: as §1
# Gal3S(b1-4)Glc = biological target: Gal3S(b1-4)Glc
# Procedure, shortened: as §1
# Gal3S(b1-4)Glc6S = biological target: Gal3S(b1-4)Glc6S
# Procedure, shortened: as §1
# Gal3S(b1-4)GlcNAc = biological target: Gal3S(b1-4)GlcNAc
# Procedure, shortened: as §1
# Gal3S(b1-4)GlcNAc6S = biological target: Gal3S(b1-4)GlcNAc6S
# Procedure, shortened: as §1
# Gal3S6S(b1-4)GlcNAc = biological target: Gal3S6S(b1-4)GlcNAc
# Procedure, shortened: as §1
# Gal3S6S(b1-4)GlcNAc6S = biological target: Gal3S6S(b1-4)GlcNAc6S
# Procedure, shortened: as §1
# Gal4S(b1-4)GlcNAc = biological target: Gal4S(b1-4)GlcNAc
# Procedure, shortened: as §1
# Gal4S6S(b1-4)GlcNAc = biological target: Gal4S6S(b1-4)GlcNAc
# Procedure, shortened: as §1
# Gal6S(b1-4)Glc = biological target: Gal6S(b1-4)Glc
# Procedure, shortened: as §1
# Gal6S(b1-4)Glc6S = biological target: Gal6S(b1-4)Glc6S
# Procedure, shortened: as §1
# Gal6S(b1-4)GlcNAc = biological target: Gal6S(b1-4)GlcNAc
# Procedure, shortened: as §1
# GalNAc(a1-3)Gal = biological target: GalNAc(a1-3)Gal
# Procedure, shortened: as §1
# GalNAc(a1-3)GalNAc = biological target: GalNAc(a1-3)GalNAc
# Procedure, shortened: as §1
# [18] = biological target: GalNAc(b1-3)Gal(a1-4)Gal(b1-4)GlcNAc
# Procedure, shortened: as §1
# GalNAc(b1-4)GlcNAc = biological target: GalNAc(b1-4)GlcNAc
# Procedure, shortened: as §1
# Glc(a1-4)Glc = biological target: Glc(a1-4)Glc
# Procedure, shortened: as §1
# Glc(a1-6)Glc(a1-6)Glc = biological target: Glc(a1-6)Glc(a1-6)Glc
# Procedure, shortened: as §1
# Glc(b1-4)Glc = biological target: Glc(b1-4)Glc
# Procedure, shortened: as §1
# Glc(b1-6)Glc = biological target: Glc(b1-6)Glc
# Procedure, shortened: as §1
# GlcA(b1-3)Gal = biological target: GlcA(b1-3)Gal
# Procedure, shortened: as §1
# GlcA(b1-6)Gal = biological target: GlcA(b1-6)Gal
# Procedure, shortened: as §1
# [19] = biological target: GlcNAc(a1-3)Gal(b1-4)GlcNAc
# Procedure, shortened: as §1
# [20] = biological target: GlcNAc(a1-6)Gal(b1-4)GlcNAc
# Procedure, shortened: as §1
# [21] = biological target: GlcNAc(b1-2)Gal(b1-3)GlcNAc
# Procedure, shortened: as §1
# [22] = biological target: GlcNAc(b1-2)Man(a1-3)[GlcNAc(b1-2)Man(a1-6)]Man(b1-4)GlcNAc(b1-4)GlcNAc
# Procedure, shortened: as §1
# GlcNAc(b1-3)Gal = biological target: GlcNAc(b1-3)Gal
# Procedure, shortened: as §1
# [23] = biological target: GlcNAc(b1-3)Gal(b1-3)GalNAc
# Procedure, shortened: as §1
# GlcNAc(b1-3)Gal(b1-4)Glc = biological target: GlcNAc(b1-3)Gal(b1-4)Glc
# Procedure, shortened: as §1
# [24] = biological target: GlcNAc(b1-3)Gal(b1-4)GlcNAc
# Procedure, shortened: as §1
# [25] = biological target: GlcNAc(b1-3)Gal(b1-4)GlcNAc(b1-3)Gal(b1-4)GlcNAc
# Procedure, shortened: as §1
# GlcNAc(b1-3)GalNAc = biological target: GlcNAc(b1-3)GalNAc
# Procedure, shortened: as §1
# [26] = biological target: GlcNAc(b1-3)[GlcNAc(b1-4)][GlcNAc(b1-6)]GlcNAc
# Procedure, shortened: as §1
# [27] = biological target: GlcNAc(b1-3)[GlcNAc(b1-6)]Gal(b1-4)GlcNAc
# Procedure, shortened: as §1
# [28] = biological target: GlcNAc(b1-3)[GlcNAc(b1-6)]GlcNAc
# Procedure, shortened: as §1
# [29] = biological target: GlcNAc(b1-4)Gal(b1-4)GlcNAc
# Procedure, shortened: as §1
# [30] = biological target: GlcNAc(b1-4)GlcNAc(b1-4)GlcNAc
# Procedure, shortened: as §1
# [31] = biological target: GlcNAc(b1-4)GlcNAc(b1-4)GlcNAc(b1-4)GlcNAc(b1-4)GlcNAc
# Procedure, shortened: as §1
# [32] = biological target: GlcNAc(b1-4)GlcNAc(b1-4)GlcNAc(b1-4)GlcNAc(b1-4)GlcNAc(b1-4)GlcNAc
# Procedure, shortened: as §1
# [33] = biological target: GlcNAc(b1-4)[GlcNAc(b1-6)]GalNAc
# Procedure, shortened: as §1
# [34] = biological target: GlcNAc(b1-6)Gal(b1-4)GlcNAc
# Procedure, shortened: as §1
# GlcNAc(b1-6)GalNAc = biological target: GlcNAc(b1-6)GalNAc
# Procedure, shortened: as §1
# Kdn(a2-3)Gal(b1-3)GlcNAc = biological target: Kdn(a2-3)Gal(b1-3)GlcNAc
# Procedure, shortened: as §1
binder,measurement,setting,value
"Onconase (Rana pipiens), P22069 (protein) QDWLTFQKKHITNTRDVDCDNIMSTNLFHCKDKNTFIYSRPEPVKAICKGIIASKNVLTTSEFYLSDCNVTSRPCKYKLKKSTNKFCVTCENQAPVHFVGVGSC",glycan array binding signal (z-score),[1],-2.03
same,glycan array binding signal (z-score),[2],0.353
same,glycan array binding signal (z-score),[3],0.649
same,glycan array binding signal (z-score),[4],-0.65
same,glycan array binding signal (z-score),[5],0.045
same,glycan array binding signal (z-score),[6],-0.254
same,glycan array binding signal (z-score),Gal(b1-4)Glc,-0.134
same,glycan array binding signal (z-score),Gal(b1-4)Glc6S,0.125
same,glycan array binding signal (z-score),Gal(b1-4)GlcNAc,-0.451
same,glycan array binding signal (z-score),[7],1.78
same,glycan array binding signal (z-score),[8],0.071
same,glycan array binding signal (z-score),[9],-0.453
same,glycan array binding signal (z-score),[10],-0.608
same,glycan array binding signal (z-score),[11],2.54
same,glycan array binding signal (z-score),[12],0.904
same,glycan array binding signal (z-score),[13],-0.818
same,glycan array binding signal (z-score),[14],-0.359
same,glycan array binding signal (z-score),[15],-2.24
same,glycan array binding signal (z-score),[16],-0.723
same,glycan array binding signal (z-score),Gal3S(b1-3)GalNAc,1.43
same,glycan array binding signal (z-score),Gal3S(b1-3)GlcNAc,1.01
same,glycan array binding signal (z-score),[17],0.272
same,glycan array binding signal (z-score),Gal3S(b1-4)Glc,-0.458
same,glycan array binding signal (z-score),Gal3S(b1-4)Glc6S,-0.281
same,glycan array binding signal (z-score),Gal3S(b1-4)GlcNAc,-0.393
same,glycan array binding signal (z-score),Gal3S(b1-4)GlcNAc6S,0.743
same,glycan array binding signal (z-score),Gal3S6S(b1-4)GlcNAc,0.119
same,glycan array binding signal (z-score),Gal3S6S(b1-4)GlcNAc6S,0.447
same,glycan array binding signal (z-score),Gal4S(b1-4)GlcNAc,-0.516
same,glycan array binding signal (z-score),Gal4S6S(b1-4)GlcNAc,1.1
same,glycan array binding signal (z-score),Gal6S(b1-4)Glc,0.123
same,glycan array binding signal (z-score),Gal6S(b1-4)Glc6S,0.598
same,glycan array binding signal (z-score),Gal6S(b1-4)GlcNAc,0.046
same,glycan array binding signal (z-score),GalNAc(a1-3)Gal,-0.222
same,glycan array binding signal (z-score),GalNAc(a1-3)GalNAc,-0.168
same,glycan array binding signal (z-score),[18],0.352
same,glycan array binding signal (z-score),GalNAc(b1-4)GlcNAc,-0.519
same,glycan array binding signal (z-score),Glc(a1-4)Glc,-0.79
same,glycan array binding signal (z-score),Glc(a1-6)Glc(a1-6)Glc,0.282
same,glycan array binding signal (z-score),Glc(b1-4)Glc,-2.4
same,glycan array binding signal (z-score),Glc(b1-6)Glc,0.027
same,glycan array binding signal (z-score),GlcA(b1-3)Gal,0.506
same,glycan array binding signal (z-score),GlcA(b1-6)Gal,-0.471
same,glycan array binding signal (z-score),[19],0.194
same,glycan array binding signal (z-score),[20],0.987
same,glycan array binding signal (z-score),[21],-0.449
same,glycan array binding signal (z-score),[22],0.914
same,glycan array binding signal (z-score),GlcNAc(b1-3)Gal,1.22
same,glycan array binding signal (z-score),[23],0.289
same,glycan array binding signal (z-score),GlcNAc(b1-3)Gal(b1-4)Glc,-0.129
same,glycan array binding signal (z-score),[24],-1.06
same,glycan array binding signal (z-score),[25],-0.72
same,glycan array binding signal (z-score),GlcNAc(b1-3)GalNAc,-0.84
same,glycan array binding signal (z-score),[26],0.372
same,glycan array binding signal (z-score),[27],-0.071
same,glycan array binding signal (z-score),[28],0.132
same,glycan array binding signal (z-score),[29],-0.317
same,glycan array binding signal (z-score),[30],-0.556
same,glycan array binding signal (z-score),[31],-1.57
same,glycan array binding signal (z-score),[32],0.007
same,glycan array binding signal (z-score),[33],-0.041
same,glycan array binding signal (z-score),[34],-0.698
same,glycan array binding signal (z-score),GlcNAc(b1-6)GalNAc,-1.13
same,glycan array binding signal (z-score),Kdn(a2-3)Gal(b1-3)GlcNAc,-0.468
